Positions count from the first letter of the chain named. The list shows a part of the results.
T1: RBFOX1 RRM RbFoxmut (Fox-RRM*) (Homo sapiens, UniProt Q9NWB1 109-208, R118D;E147R;N151S;E152T)
T1 sequence: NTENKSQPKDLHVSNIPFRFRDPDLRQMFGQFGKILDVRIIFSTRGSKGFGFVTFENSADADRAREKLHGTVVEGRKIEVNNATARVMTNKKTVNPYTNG

B1: AUUCCAA (DNA:RNA)
RNA: GGGAGACCGGAAUUCAGAUUGUCCAUUCCAAUUAAAUCCCGUCGUAGCCACCA
DNA 1: CAATCTGAATTCCGGTCTCCC
DNA 2: TGGTGGCTACGACGGGATT
B2: AUAUACC (DNA:RNA)
RNA: B1 RNA with U27A, C28U, C29A, A30C, A31C
DNA 1: CAATCTGAATTCCGGTCTCCC
DNA 2: TGGTGGCTACGACGGGATT
B3: GGAGUCU (DNA:RNA)
RNA: GGGAGACCGGAAUUCAGAUUGUCCGGAGUCUUUAAAUCCCGUCGUAGCCACCA
DNA 1: CAATCTGAATTCCGGTCTCCC
DNA 2: TGGTGGCTACGACGGGATT
B4: CCUUUCG (DNA:RNA)
RNA: B3 RNA with G25C, G26C, A27U, G28U, U31G
DNA 1: CAATCTGAATTCCGGTCTCCC
DNA 2: TGGTGGCTACGACGGGATT
B5: UUUCCAC (DNA:RNA)
RNA: B1 RNA with A25U, A31C
DNA 1: CAATCTGAATTCCGGTCTCCC
DNA 2: TGGTGGCTACGACGGGATT
B6: CUUCAAG (DNA:RNA)
RNA: B1 RNA with A25C, C29A, A31G
DNA 1: CAATCTGAATTCCGGTCTCCC
DNA 2: TGGTGGCTACGACGGGATT
B7: AGUGUGA (DNA:RNA)
RNA: B1 RNA with U26G, C28G, C29U, A30G
DNA 1: CAATCTGAATTCCGGTCTCCC
DNA 2: TGGTGGCTACGACGGGATT
B8: UCUGGAG (DNA:RNA)
RNA: B1 RNA with A25U, U26C, C28G, C29G, A31G
DNA 1: CAATCTGAATTCCGGTCTCCC
DNA 2: TGGTGGCTACGACGGGATT
B9: CCGGAUC (DNA:RNA)
RNA: B3 RNA with G25C, G26C, A27G, U29A, C30U, U31C
DNA 1: CAATCTGAATTCCGGTCTCCC
DNA 2: TGGTGGCTACGACGGGATT
B10: GGCUCAA (DNA:RNA)
RNA: B1 RNA with A25G, U26G, U27C, C28U
DNA 1: CAATCTGAATTCCGGTCTCCC
DNA 2: TGGTGGCTACGACGGGATT
B11: ACUCCGU (DNA:RNA)
RNA: B1 RNA with U26C, A30G, A31U
DNA 1: CAATCTGAATTCCGGTCTCCC
DNA 2: TGGTGGCTACGACGGGATT
B12: CGUGGUC (DNA:RNA)
RNA: B3 RNA with G25C, A27U, U29G, C30U, U31C
DNA 1: CAATCTGAATTCCGGTCTCCC
DNA 2: TGGTGGCTACGACGGGATT
B13: AUGCAGU (DNA:RNA)
RNA: B1 RNA with U27G, C29A, A30G, A31U
DNA 1: CAATCTGAATTCCGGTCTCCC
DNA 2: TGGTGGCTACGACGGGATT
B14: CCUACAA (DNA:RNA)
RNA: B1 RNA with A25C, U26C, C28A
DNA 1: CAATCTGAATTCCGGTCTCCC
DNA 2: TGGTGGCTACGACGGGATT
B15: CACUCUC (DNA:RNA)
RNA: B1 RNA with A25C, U26A, U27C, C28U, A30U, A31C
DNA 1: CAATCTGAATTCCGGTCTCCC
DNA 2: TGGTGGCTACGACGGGATT
B16: GAAGCAU (DNA:RNA)
RNA: B3 RNA with G26A, U29C, C30A
DNA 1: CAATCTGAATTCCGGTCTCCC
DNA 2: TGGTGGCTACGACGGGATT
B17: UAUACUA (DNA:RNA)
RNA: B1 RNA with A25U, U26A, C28A, A30U
DNA 1: CAATCTGAATTCCGGTCTCCC
DNA 2: TGGTGGCTACGACGGGATT
B18: UUUCUUC (DNA:RNA)
RNA: B1 RNA with A25U, C29U, A30U, A31C
DNA 1: CAATCTGAATTCCGGTCTCCC
DNA 2: TGGTGGCTACGACGGGATT
B19: GCGGACC (DNA:RNA)
RNA: B3 RNA with G26C, A27G, U29A, U31C
DNA 1: CAATCTGAATTCCGGTCTCCC
DNA 2: TGGTGGCTACGACGGGATT
B20: UACGGUA (DNA:RNA)
RNA: B1 RNA with A25U, U26A, U27C, C28G, C29G, A30U
DNA 1: CAATCTGAATTCCGGTCTCCC
DNA 2: TGGTGGCTACGACGGGATT
B21: GCUAGAC (DNA:RNA)
RNA: B1 RNA with A25G, U26C, C28A, C29G, A31C
DNA 1: CAATCTGAATTCCGGTCTCCC
DNA 2: TGGTGGCTACGACGGGATT
B22: AUGGUAA (DNA:RNA)
RNA: B1 RNA with U27G, C28G, C29U
DNA 1: CAATCTGAATTCCGGTCTCCC
DNA 2: TGGTGGCTACGACGGGATT
B23: GUGGAUA (DNA:RNA)
RNA: B1 RNA with A25G, U27G, C28G, C29A, A30U
DNA 1: CAATCTGAATTCCGGTCTCCC
DNA 2: TGGTGGCTACGACGGGATT
B24: UCAUAUC (DNA:RNA)
RNA: B3 RNA with G25U, G26C, G28U, U29A, C30U, U31C
DNA 1: CAATCTGAATTCCGGTCTCCC
DNA 2: TGGTGGCTACGACGGGATT
B25: AGUUCCG (DNA:RNA)
RNA: B1 RNA with U26G, C28U, A30C, A31G
DNA 1: CAATCTGAATTCCGGTCTCCC
DNA 2: TGGTGGCTACGACGGGATT
B26: UCCAUCG (DNA:RNA)
RNA: B3 RNA with G25U, G26C, A27C, G28A, U31G
DNA 1: CAATCTGAATTCCGGTCTCCC
DNA 2: TGGTGGCTACGACGGGATT
B27: AUGGUUC (DNA:RNA)
RNA: B1 RNA with U27G, C28G, C29U, A30U, A31C
DNA 1: CAATCTGAATTCCGGTCTCCC
DNA 2: TGGTGGCTACGACGGGATT
B28: AGACAAA (DNA:RNA)
RNA: B1 RNA with U26G, U27A, C29A
DNA 1: CAATCTGAATTCCGGTCTCCC
DNA 2: TGGTGGCTACGACGGGATT
B29: GAAGCUA (DNA:RNA)
RNA: B3 RNA with G26A, U29C, C30U, U31A
DNA 1: CAATCTGAATTCCGGTCTCCC
DNA 2: TGGTGGCTACGACGGGATT
B30: GUGUAUA (DNA:RNA)
RNA: B1 RNA with A25G, U27G, C28U, C29A, A30U
DNA 1: CAATCTGAATTCCGGTCTCCC
DNA 2: TGGTGGCTACGACGGGATT
B31: AAAGUGU (DNA:RNA)
RNA: B3 RNA with G25A, G26A, C30G
DNA 1: CAATCTGAATTCCGGTCTCCC
DNA 2: TGGTGGCTACGACGGGATT

Target: T1, RBFOX1 RRM RbFoxmut (Fox-RRM*)
Assay: EMSA; HiTS-Eq, 1 nM pool, 10 min; buffer printed only for the single-RNA assays: 10 mM Tris pH 7.5, 150 mM NaCl, 3.4 mM EDTA, 0.001% NP-40, 30 C
Details: tags: His6 N-terminal (pET28a); label: 5' 32P
How it was run: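 Purified RbFox RRM (wild type or mutant) was equilibrated for 10 min in 50 µL with 1 nM of a 5′-radiolabelled pool of RNA with 7 randomized nucleotides, its flanks annealed to DNA oligonucleotides, across increasing protein concentrations. Free RNA was separated by 8% native PAGE, excised, reverse-transcribed, PCR-barcoded and sequenced on an Illumina HiSeq 2500. Relative association constants came from read-count changes of each variant against the control reaction, normalised to the cognate motif.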

| Binder | binding signal |
| --- | --- |
| B1 | 0.0801 KA relative to UGCAUGU |
| B2 | 0.11 KA relative to UGCAUGU |
| B3 | 0.09 KA relative to UGCAUGU |
| B4 | 0.101 KA relative to UGCAUGU |
| B5 | 0.0902 KA relative to UGCAUGU |
| B6 | 0.108 KA relative to UGCAUGU |
| B7 | 0.114 KA relative to UGCAUGU |
| B8 | 0.0838 KA relative to UGCAUGU |
| B9 | 0.088 KA relative to UGCAUGU |
| B10 | 0.0697 KA relative to UGCAUGU |
| B11 | 0.102 KA relative to UGCAUGU |
| B12 | 0.273 KA relative to UGCAUGU |
| B13 | 0.0865 KA relative to UGCAUGU |
| B14 | 0.0559 KA relative to UGCAUGU |
| B15 | 0.0672 KA relative to UGCAUGU |
| B16 | 0.112 KA relative to UGCAUGU |

| Binder | binding signal |
| --- | --- |
| B17 | 0.0619 KA relative to UGCAUGU |
| B18 | 0.0439 KA relative to UGCAUGU |
| B19 | 0.062 KA relative to UGCAUGU |
| B20 | 0.106 KA relative to UGCAUGU |
| B21 | 0.108 KA relative to UGCAUGU |
| B22 | 0.154 KA relative to UGCAUGU |
| B23 | 0.129 KA relative to UGCAUGU |
| B24 | 0.0708 KA relative to UGCAUGU |
| B25 | 0.103 KA relative to UGCAUGU |
| B26 | 0.0984 KA relative to UGCAUGU |
| B27 | 0.179 KA relative to UGCAUGU |
| B28 | 0.0626 KA relative to UGCAUGU |
| B29 | 0.0968 KA relative to UGCAUGU |
| B30 | 0.166 KA relative to UGCAUGU |
| B31 | 0.122 KA relative to UGCAUGU |

From article PMC9911399, “Two distinct binding modes provide the RNA-binding protein RbFox with extraordinary sequence specificity”
